The other results are listed elsewhere or left out. The list includes weakly bound sequences.

The target in the assay is T1, MBP-FoxP3dN (UniProt Q99JB6).
T1 sequence: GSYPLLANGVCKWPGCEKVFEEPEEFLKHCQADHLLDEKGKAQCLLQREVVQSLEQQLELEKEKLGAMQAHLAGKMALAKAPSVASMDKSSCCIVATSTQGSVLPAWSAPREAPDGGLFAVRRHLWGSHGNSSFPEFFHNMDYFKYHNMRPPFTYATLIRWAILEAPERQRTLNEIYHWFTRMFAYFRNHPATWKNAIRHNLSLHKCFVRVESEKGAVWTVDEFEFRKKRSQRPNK
Description: PD-seq (MBP pull-down with sequencing). The note with it: 20 mM Tris-HCl pH 7.5, 100 mM NaCl, 1.5 mM MgCl2, 0.4 uM protein, 0.1 uM dsDNA library, 30 min, room temperature, amylose pull-down; high values mean tight binding; double strand, one strand shown.
For the sequence “GATGATTGTTCTCCCAGCTGATGAATTGGCGGCATCGAGTAAACAAATTTTCCTAATCTTTCTGTTCAAGCGCCATCTAC”, the binding signal (RPM ratio (pull-down/input)) was 0.882.
As to “GATGATTGTTCTCCCAGCTGATGAATTAGCTCGTTCGAGTAAACAAATTTTCCTAATCTTTCTGTTCAAGCGCCATCTAC”, the binding signal (RPM ratio (pull-down/input)) came out at 0.372.
For “GATGATTGTTCTCCCAGCTGATGAATTTATATGCTCGAGTAAACAAATTTTCCTAATCTTTCTGTTCAAGCGCCATCTAC” the value was 2.57.
For “GATGATTGTTCTCCCAGCTGATGAATTTAGTTCATCGAGTAAACAAATTTTCCTAATCTTTCTGTTCAAGCGCCATCTAC” the value was 0.875; for “GATGATTGTTCTCCCAGCTGATGAATTTAAATACTCGAGTAAACAAATTTTCCTAATCTTTCTGTTCAAGCGCCATCTAC”, 0.641; for “GATGATTGTTCTCCCAGCTGATGAATTCACAGATTCGAGTAAACAAATTTTCCTAATCTTTCTGTTCAAGCGCCATCTAC”, 0.245.
In the case of “GATGATTGTTCTCCCAGCTGATGAATTGGGCAAATCGAGTAAACAAATTTTCCTAATCTTTCTGTTCAAGCGCCATCTAC” it was 0.522.
For the sequence “GATGATTGTTCTCCCAGCTGATGAATTTCACTTATCGAGTAAACAAATTTTCCTAATCTTTCTGTTCAAGCGCCATCTAC”, the binding signal (RPM ratio (pull-down/input)) is 0.683.
In the case of “GATGATTGTTCTCCCAGCTGATGAATTGCTTGATTCGAGTAAACAAATTTTCCTAATCTTTCTGTTCAAGCGCCATCTAC” it was 0.704.
In the case of “GATGATTGTTCTCCCAGCTGATGAATTAAGTTGGTCGAGTAAACAAATTTTCCTAATCTTTCTGTTCAAGCGCCATCTAC” it was 2.4; in that of “GATGATTGTTCTCCCAGCTGATGAATTACTCCCTTCGAGTAAACAAATTTTCCTAATCTTTCTGTTCAAGCGCCATCTAC”, 0.319; in that of “GATGATTGTTCTCCCAGCTGATGAATTTAAAAGATCGAGTAAACAAATTTTCCTAATCTTTCTGTTCAAGCGCCATCTAC”, 0.198.
For “GATGATTGTTCTCCCAGCTGATGAATTAGGCACATCGAGTAAACAAATTTTCCTAATCTTTCTGTTCAAGCGCCATCTAC” the value was 0.892; for “GATGATTGTTCTCCCAGCTGATGAATTTCTTTTGTCGAGTAAACAAATTTTCCTAATCTTTCTGTTCAAGCGCCATCTAC”, 1.65.
Turning to “GATGATTGTTCTCCCAGCTGATGAATTAAAATTCTCGAGTAAACAAATTTTCCTAATCTTTCTGTTCAAGCGCCATCTAC”, the binding signal (RPM ratio (pull-down/input)) is 0.341.
Turning to “GATGATTGTTCTCCCAGCTGATGAATTGGGACTTTCGAGTAAACAAATTTTCCTAATCTTTCTGTTCAAGCGCCATCTAC”, the binding signal (RPM ratio (pull-down/input)) worked out at 1.05.
For “GATGATTGTTCTCCCAGCTGATGAATTTGTGAGTTCGAGTAAACAAATTTTCCTAATCTTTCTGTTCAAGCGCCATCTAC”, the binding signal (RPM ratio (pull-down/input)) was found to be 5.06.
In the case of “GATGATTGTTCTCCCAGCTGATGAATTGCTGGTCTCGAGTAAACAAATTTTCCTAATCTTTCTGTTCAAGCGCCATCTAC”, the binding signal (RPM ratio (pull-down/input)) amounted to 0.743.
For “GATGATTGTTCTCCCAGCTGATGAATTGGATAGTTCGAGTAAACAAATTTTCCTAATCTTTCTGTTCAAGCGCCATCTAC”, the binding signal (RPM ratio (pull-down/input)) came to 0.766.
As for “GATGATTGTTCTCCCAGCTGATGAATTAACTATGTCGAGTAAACAAATTTTCCTAATCTTTCTGTTCAAGCGCCATCTAC”, the binding signal (RPM ratio (pull-down/input)) was 0.386.
Take “GATGATTGTTCTCCCAGCTGATGAATTTAATACTTCGAGTAAACAAATTTTCCTAATCTTTCTGTTCAAGCGCCATCTAC”: the binding signal (RPM ratio (pull-down/input)) was determined as 0.482.
For “GATGATTGTTCTCCCAGCTGATGAATTAAGATTCTCGAGTAAACAAATTTTCCTAATCTTTCTGTTCAAGCGCCATCTAC” the value was 0.549.
Turning to “GATGATTGTTCTCCCAGCTGATGAATTAATGCTATCGAGTAAACAAATTTTCCTAATCTTTCTGTTCAAGCGCCATCTAC”, the binding signal (RPM ratio (pull-down/input)) was determined as 1.89.
For “GATGATTGTTCTCCCAGCTGATGAATTTCGGATTTCGAGTAAACAAATTTTCCTAATCTTTCTGTTCAAGCGCCATCTAC” the value was 0.322; for “GATGATTGTTCTCCCAGCTGATGAATTTACACGTTCGAGTAAACAAATTTTCCTAATCTTTCTGTTCAAGCGCCATCTAC”, 0.569.
For “GATGATTGTTCTCCCAGCTGATGAATTCGCAGTCTCGAGTAAACAAATTTTCCTAATCTTTCTGTTCAAGCGCCATCTAC” the value was 0.546; for “GATGATTGTTCTCCCAGCTGATGAATTGAATCGCTCGAGTAAACAAATTTTCCTAATCTTTCTGTTCAAGCGCCATCTAC”, 0.332.
In the case of “GATGATTGTTCTCCCAGCTGATGAATTATAGAGGTCGAGTAAACAAATTTTCCTAATCTTTCTGTTCAAGCGCCATCTAC” it was 0.292.
For the sequence “GATGATTGTTCTCCCAGCTGATGAATTCAAGTATTCGAGTAAACAAATTTTCCTAATCTTTCTGTTCAAGCGCCATCTAC”, the binding signal (RPM ratio (pull-down/input)) turned out to be 0.851.
In the case of “GATGATTGTTCTCCCAGCTGATGAATTATCGCAATCGAGTAAACAAATTTTCCTAATCTTTCTGTTCAAGCGCCATCTAC” it was 2.89; in that of “GATGATTGTTCTCCCAGCTGATGAATTGACGCTATCGAGTAAACAAATTTTCCTAATCTTTCTGTTCAAGCGCCATCTAC”, 0.96.

For the origin of these results see paper PMC12820563.
